OD492nm data for four molecules are collected here from patent publication US20070128217A1.

First the molecules themselves.
B1: SC03-007 (scFv)
scFv: SMAEVQLVESGGGLVQPRGSLRLSCAASGFTFSDYRMNWVRQAPGKGLERVAVISYDGSNKYYADSVKGRFTISRDNSKNTLYLQMNSLRAEDTAVYYCARGYWTSLTGFDYWGQGTLVTVLEGTGGSGGTGSGTGTSELTQSPSSLSASVGDRVTIT[about 80 residues left out here]FGQGTKVEIKRAAA
B2: SC03-010 (scFv)
scFv: SMAEVQLVESGGGVVQPGRSLRLSCATSGFTFSGYTMHWVRQAPGKGLEWVSSISGGSTYYADSRKGRFTISRDNSKNTLYLQMNNLRAEDTAVYYCAKGGGLPYLSFDYWGQGTLVTVLEGTGGSGGTGSGTGTSELTQSPSSLSASVGDRVTIT[about 80 residues left out here]FGQGTKVEIKRAAA
B3: SC03-014 (scFv)
scFv: AMAEVQLVESGGGLVQPGGSLRLSCAASGFTFSDHYMDWVRQAPGKGLEWVGRTRNKANSYTTEYAASVKGRFTISRDDSKNSLYLQMNSLKTEDTAVYYCARGISPFYFDYWGQGTLVTVSSGGGGSGGGGSGGGGSEIELTQSPSSLSASVGDRVTIT[about 80 residues left out here]FGQGTKVEIKRAAA
B4: SC03-009 (scFv)
scFv: SMAEVQLVESGGGVVQPGRSLRLSCAASGFTFSDYPMNWVRQAPGKGLEWVSSISGSGGSTYYADSVKGRFTISRDNSKNTLYLQMNSLRAEDTAVYYCAKGLFMVTTYAFDYWGQGTLVTVLEGTGGSGGTGSGTGTSELTQSPSSLSASVGDRVTIT[about 80 residues left out here]FGQGTKVEIKRAAA

This test deals with SARS-CoV preparation (Frankfurt 1 strain) (SARS-CoV strain Frankfurt 1).
Consider B1, for which the OD492nm was 0.876 OD492nm. Then B2, with 0.327 OD492nm.

In the case of B3, the OD492nm was found to be 0.917 OD492nm.

Turning to B4, the OD492nm amounted to 0.76 OD492nm.
